Experimental data reported in the supplement of paper PMC4604168 (melanoma cell lines).
Some of the results follow. Single values are uncertain, as repeats are few or missing.

Legend:
Test in all cases: cell count relative to DMSO control; melanoma cells; higher = more viable cells
Settings in all cases: library dose: low library concentration; 72 h
WM115 = test system: WM115
WM1716 = test system: WM1716
WM1745 = test system: WM1745
WM3526 = test system: WM3526
WM3619 = test system: WM3619
WM451Lu = test system: WM451Lu
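Further: cell number obtained by counting DAPI-stained nuclei in high-throughput microscope images with image analysis software, screen run in 1,536-well plates.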

| SMILES | cell count (WM115) | cell count (WM1716) | cell count (WM1745) | cell count (WM3526) | cell count (WM3619) | cell count (WM451Lu) |
| --- | --- | --- | --- | --- | --- | --- |
| O=C(O)c1ccc(-c2c[nH]c3ncc(-c4ccccc4)cc23)cc1C1CCCC1 + Oc1nc(-c2ccc(C(F)(F)F)cc2)nc2c1CSCC2 [XAV939] (first compound 0.16 µM, partner dose 2 µM) | 87% | 68.9% | 85.3% | 84% | 81.1% | 99.6% |
| CC1(C)NC(=O)N(c2ccc([N+](=O)[O-])c(C(F)(F)F)c2)C1=O [nilutamide] + COc1cc2c(Oc3ccc4[nH]c(C)cc4c3F)ncnc2cc1OCCCN1CCCC1 [cediranib] (first compound 1 µM, partner dose 0.4 µM) | 97.1% | 92.8% | 103% | 101% | 105% | 86.4% |
| Cn1cncc1[C@@](N)(c1ccc(Cl)cc1)c1ccc2c(c1)c(-c1cccc(Cl)c1)cc(=O)n2C [tipifarnib] + O=c1cc(-c2cccc3c2Sc2ccccc2S3)oc(N2CCOCC2)c1 [KU55933] (first compound 0.01 µM, partner dose 1 µM) | 91.7% | 70.8% | 97.4% | 74.8% | 105% | 91.9% |
| O=C(Nc1cccc(Cl)c1)Nc1ncc(CCNc2ncnc3ccsc23)s1 + CCN(CC)CCCCNc1ncc2cc(-c3cc(OC)cc(OC)c3)c(NC(=O)NC(C)(C)C)nc2n1 [PD173074] (first compound 0.0008 µM, partner dose 0.1 µM) | 85.5% | 107% | 72.6% | 110% | 108% | 80.8% |
| Cn1cncc1[C@@](N)(c1ccc(Cl)cc1)c1ccc2c(c1)c(-c1cccc(Cl)c1)cc(=O)n2C [tipifarnib] + CCCCCCCCCCCC1=C(O)C(=O)C=C(O)C1=O [Embelin] (first compound 0.01 µM, partner dose 1.2 µM) | 99.9% | 84.7% | 103% | 84.4% | 115% | 99.7% |
| CC1(C)NC(=O)N(c2ccc([N+](=O)[O-])c(C(F)(F)F)c2)C1=O [nilutamide] + OCCn1cc(-c2cnc3nnn(Cc4ccc5ncccc5c4)c3n2)cn1 [PF04217903] (first compound 1 µM, partner dose 1 µM) | 100% | 102% | 86.3% | 87.4% | 108% | 102% |
| C[C@@H]1CCN(C(=O)CC#N)C[C@@H]1N(C)c1ncnc2[nH]ccc12 + O=C(O)c1ccc(-c2c[nH]c3ncc(-c4ccccc4)cc23)cc1C1CCCC1 [GSK650394] (first compound 1 µM, partner dose 0.16 µM) | 93.8% | 96.5% | 99.8% | 87.6% | 84.8% | 103% |
| Cn1cncc1[C@@](N)(c1ccc(Cl)cc1)c1ccc2c(c1)c(-c1cccc(Cl)c1)cc(=O)n2C [tipifarnib] + COc1cc2ncnc(Nc3ccc(Oc4ccccc4)cc3)c2cc1OC [SrcI1] (first compound 0.01 µM, partner dose 2 µM) | 89.9% | 88% | 84.7% | 74.5% | 87.4% | 97.7% |
| CC1(C)NC(=O)N(c2ccc([N+](=O)[O-])c(C(F)(F)F)c2)C1=O [nilutamide] + CCc1ccc(CCOc2ccc(CC3SC(=O)NC3=O)cc2)nc1 [pioglitazone] (first compound 1 µM, partner dose 2 µM) | 105% | 95.3% | 91.3% | 95.6% | 77.9% | 94.7% |
| Cn1cncc1[C@@](N)(c1ccc(Cl)cc1)c1ccc2c(c1)c(-c1cccc(Cl)c1)cc(=O)n2C [tipifarnib] + O=C1NC(=O)/C(=C/c2ccc(-c3ccc(F)cc3O)o2)S1 [AS252424] (first compound 0.01 µM, partner dose 1 µM) | 98.2% | 81.9% | 111% | 82.8% | 93.9% | 108% |
| COc1cc(Nc2ncc(F)c(Nc3ccc4c(n3)NC(=O)C(C)(C)O4)n2)cc(OC)c1OC [Tamatinib] + OCCn1cc(-c2cnc3nnn(Cc4ccc5ncccc5c4)c3n2)cn1 [PF04217903] (first compound 0.4 µM, partner dose 1 µM) | 83.5% | 89.3% | 87% | 88.9% | 87.6% | 78.6% |
| O=c1[nH]nc(Sc2ncc([N+](=O)[O-])s2)n1-c1ccc2c(c1)OCCO2 + NCC(=O)Nc1ccc(-n2nc(C(F)(F)F)cc2-c2ccc3c(ccc4ccccc43)c2)cc1 [OSU03012] (first compound 0.2 µM, partner dose 1 µM) | 85.1% | 86.7% | 104% | 54.5% | 111% | 43% |
| COc1cc(Nc2ncc(F)c(Nc3ccc4c(n3)NC(=O)C(C)(C)O4)n2)cc(OC)c1OC [Tamatinib] + Oc1nc(-c2ccc(C(F)(F)F)cc2)nc2c1CSCC2 [XAV939] (first compound 0.4 µM, partner dose 2 µM) | 81.5% | 62.9% | 59.9% | 99.2% | 84.1% | 92% |
